Test results reported in publication PMC12040169 (PLOS Biology, 2025).
Some of the results follow.

Test system: T1, C. trachomatis L2/434/Bu expressing GFP (CTL2-GFP)
T1 construct: L2/434/Bu GFP intracellular growth in HeLa cells
Set-up: species or system HeLa; C. trachomatis total inclusion area by high-content imaging, normalised to DMSO
Settings: total inclusion area; 28.5 h, 10 µM; inhibitor
Outline: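 Following bulk GFP and resorufin fluorescence reads, infected cells were fixed, Hoechst-stained and imaged on a high-content platform. Inclusion total area and number per well served as growth proxies; nuclei counts indicated host viability. MICs were derived as for the fluorescence assay.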

Row | SMILES | % of control remaining
1 | O=C1COc2ccccc2C(=O)N[C@@H]2CCOC[C@@H]2C/C=C/C[C@H]2[C@H](CCCN2CCO)N1 [CBK292149] | 94.3903
2 | O=C(NCC1(c2ccccc2)CCCC1)c1ccc(=O)n(CC(=O)N2CCCCC2)c1 [CBK286082] | 107.235
3 | Cc1noc(C)c1NC(=O)c1c(C)noc1C [CBK200305] | 106.134
4 | O=C(c1c[nH]c2ccccc12)C(O)C(c1ccccc1)N1CCCCC1 (centres unmarked) [CBK267799] | 96.0648
5 | Cc1cc(C)n2nc(NC(=O)C(C)Oc3ccccc3)nc2n1 (centres unmarked) [CBK270039] | 72.8197
6 | Clc1ccc(COc2nccnc2OCc2cccnc2N2CCOCC2)cc1Cl [CBK161610] | 76.7912
7 | CC1(C)CN(Cc2cccc(-c3ccccn3)c2)CCS1(=O)=O [CBK304284] | 73.0179
8 | Cc1nn(C)c(Cl)c1S(=O)(=O)Nc1ccc2nsnc2c1 [CBK062222] | 113.704
9 | O=C(CSc1nc2ccccc2s1)OCC(=O)c1cccc([N+](=O)[O-])c1 [CBK262361] | 92.022
10 | COc1cccc(CN2CCC3(C2)c2[nH]c4ccccc4c2CCN3Cc2cccc(OC)c2)c1 (centres unmarked) [CBK059468] | 72.6126
11 | O=C(c1nccs1)C1CCN(C(=O)Cc2cccc(F)c2)CC1 [CBK284208] | 108.893
12 | O=C(Nc1ccccc1O)c1ccc2c(c1)C(=O)N(c1ccc(Sc3ccc([N+](=O)[O-])cc3)cc1)C2=O [CBK262092] | 89.9847
13 | CC1=C[C@@H](CNC(=O)c2cccnc2)[C@H](C(C)C)C[C@H]1CC(=O)N1CCCC1 [CBK289055] | 96.2677
14 | COCCNC(=O)c1ccc(-c2ccccc2OC)nc1NCC1CC1 [CBK106246] | 87.3047
15 | FC(F)(F)c1ccc(CN2CCN(c3nccnc3OCCN3CCOCC3)CC2)cc1 [CBK082890T] | 85.8796
16 | COc1cc2c(cc1OC)C1c3ccccc3N(Cc3ccccc3)C(=O)N1CC2 (centres unmarked) [CBK286192] | 86.5316
17 | O=C(Cn1cc(C(=O)NC2(c3ccccc3)CCCC2)ccc1=O)NCc1ccc(F)cc1 [CBK286027] | 96.377
18 | C[C@H](Nc1cncc(-c2ccc3c(c2)OCO3)n1)c1ccccc1 [CBK065962] | 136.783
19 | COc1ccccc1CCCNC(=O)c1csc(C(C)=O)c1 [CBK282513] | 86.2942
20 | Cc1ccc(N2CCCC2=O)cc1S(=O)(=O)NC1C2CCCCC21 (centres unmarked) [CBK282840] | 118.223
21 | O=C(NC1CCCOC1)C1CCN(Cc2ccccc2Cl)CC1 (centres unmarked) [CBK282520] | 133.039
22 | CCC(C)(C)c1ccc(S(=O)(=O)N2CCN(CCCC#N)CC2)cc1 [CBK063134] | 80.7376
23 | COc1ccc(S(=O)(=O)N(C)CC(=O)Nc2ccc(S(N)(=O)=O)cc2)cc1 [CBK265922] | 79.3216
24 | COCc1nc(CN2CCNC(=O)C2c2ccccc2C(F)(F)F)no1 (centres unmarked) [CBK304157] | 45.8316
25 | CCOC(=O)c1cnc(SCc2cccc([N+](=O)[O-])c2)nc1N [CBK266449] | 116.809
26 | Cc1noc2nc(C3CCCN(C(=O)C4CC4)C3)cc(C(F)F)c12 (centres unmarked) [CBK284608] | 102.752

Row | SMILES | % of control remaining
27 | c1ccc(OCCOc2nccnc2-c2ccsc2)cc1 [CBK106773] | 74.1886
28 | Cc1nc(-c2ccccc2)sc1C(=O)C1=C(O)C(=O)N(CCN2CCOCC2)C1c1cccs1 (centres unmarked) [CBK266520] | 125.451
29 | c1ccc2c(CN3CCCNCC3)cccc2c1 [CBK028773] | 36.2979
30 | CN1CCN(C(=O)CN(c2cccc([N+](=O)[O-])c2)S(=O)(=O)c2ccccc2)CC1 [CBK264121] | 94.7712
31 | COc1ccc(CC(=O)N2CC=C(c3ccc(C)o3)CC2)cc1 [CBK283572] | 81.7392
32 | CCCN1C(=O)COc2ccc(-c3noc(-c4ccccn4)n3)cc21 [CBK288596] | 66.2267
33 | CCn1cc(C(=O)O)c(=O)c2cc(F)c(N3CCN(C(=S)NC(=O)c4c(-c5ccccc5)noc4C)CC3)cc21 [CBK267490] | 90.7203
34 | N#Cc1c(F)cccc1N1CCCC(C(=O)Nc2nncs2)C1 (centres unmarked) [CBK306335] | 51.7068
35 | CCCc1cc(CNC(=O)c2ccnn2C(C)C)on1 [CBK282047] | 130.249
36 | O=c1nc(CNc2ccc(Br)cc2)[nH][nH]1 [CBK288403] | 53.2609
37 | CCOC(=O)c1ccc(-c2ccc(/C=N/N=C3\NC(=O)C(CC(=O)O)S3)o2)cc1 (centres unmarked) [CBK264474] | 105.588
38 | Nn1c(SCCCCSc2nnc(C(F)(F)F)n2N)nnc1C(F)(F)F [CBK267946] | 109.07
39 | O=C(OCc1ccccc1)N1CCN(c2ccccc2)CC1 [CBK200241] | 79.1582
40 | Cc1ccc(NS(=O)(=O)c2ccc(OC(F)(F)F)cc2)c(CO)c1 [CBK043267] | 97.4273
41 | O=c1c(N2CCCNCC2)nccn1CCOc1ccc(Oc2ccccc2)cc1 [CBK028615T] | 109.981
42 | CC(C)Oc1ncccc1OCc1ccccc1 [CBK001457] | 123.77
43 | O=C(Nc1cccc(C(=O)O)c1)/C(=C\c1ccco1)NC(=O)c1ccc(Br)cc1 [CBK263707] | 97.1417
44 | CCOC(=O)NC(Nn1cnnc1)(C(F)(F)F)C(F)(F)F [CBK261344] | 91.507
45 | CC1(C)Cc2ccccc2C(NC(Cc2ccccc2)C(=O)O)=N1 (centres unmarked) [CBK262533] | 99.0084
46 | CC(=O)C1=C(O)C(=O)N(CCN2CCNCC2)C1c1cccc([N+](=O)[O-])c1 (centres unmarked) [CBK263320] | 81.3597
47 | Cc1ccc(N(C(C)C(=O)Nc2ccccc2-c2ccccc2)S(C)(=O)=O)cc1 (centres unmarked) [CBK267889] | 101.355
48 | O=C(O)C1CCCCC1C(=O)NCCCCc1ccccc1 (centres unmarked) [CBK287205] | 84.591
49 | CC(C)(C)OC(=O)N1CCN(c2cncc(NCc3ccccc3)n2)CC1 [CBK000154] | 102.148
50 | OC1(Cn2ccc3ncccc32)CCN(CC2CC=CCC2)CC1 (centres unmarked) [CBK284782] | 96.487
51 | CCCC/C=C/c1nccnc1NCc1ccc(C(F)(F)F)cc1 [CBK038077] | 105.693
52 | COc1ccccc1/C=C1/S/C(=N/Cc2ccccc2)N(Cc2ccccc2)C1=O [CBK262234] | 102.032

Row | SMILES | % of control remaining
53 | COc1cc(OC)c(OC)cc1CN1CCN(S(=O)(=O)c2ccc(C)cc2)CC1 [CBK263323] | 65.8902
54 | Cc1nc2ccccn2c1CC(=O)N1CCCC(c2ccc(Cc3cccc(F)c3)cn2)C1 (centres unmarked) [CBK286002] | 84.7212
55 | O=CN1CCN(S(=O)(=O)c2ccc3c(c2)Cc2cc(S(=O)(=O)N4CCN(C=O)CC4)ccc2-3)CC1 [CBK264351] | 119.177
56 | Cn1ccnc1CCC1CCCCN1C(=O)NCc1cccc(F)c1 (centres unmarked) [CBK307124] | 24.7068
57 | COc1ccc(-c2cnc(N)c(-c3ccc(C(=O)NCCO)cc3)n2)cn1 [CBK064147] | 108.626
58 | Cn1c2ccc(Br)cc2c2nnc(SCC(=O)N3c4ccccc4Sc4ccccc43)nc21 [CBK263900] | 118.955
59 | CC(C)[C@@H]1C[C@H](C(F)(F)F)n2nc(C3CCCNC3)cc2N1 (some centres unmarked) [CBK283056] | 107.31
60 | COc1ccc(C)cc1-n1ccc(C(=O)NC2(C#N)CCSC2)n1 (centres unmarked) [CBK304943] | 38.6679
61 | Cc1cc(NS(=O)(=O)c2cccc([N+](=O)[O-])c2)n(C)n1 [CBK067243] | 97.2918
62 | Cn1nc(-c2ccccc2)cc1[C@H]1CN2CC[C@H]1C[C@@H]2CNS(C)(=O)=O [CBK289096] | 90.8491
63 | COc1cccc(C2CC(=O)Nc3c2c(=O)nc(SC)n3C)c1 (centres unmarked) [CBK307546] | 81.9696
64 | Cc1ccc(-n2ncc3c(=O)n(CC(=O)Nc4cccc(C)c4)cnc32)cc1 [CBK287533] | 100.879
65 | Cc1nn(CC(=O)OC(C)C)c(=O)c2cc3sccc3n12 [CBK284022] | 90.9123
66 | CN1CCN(c2ccc(-c3cnc4[nH]c(=O)n(C5CC5)c4n3)cc2)CC1 [CBK064899] | 91.2083
67 | CC(C)Nc1cc(Sc2cccc(C(=O)O)c2)ncn1 [CBK093583] | 83.4272
68 | Cc1c(C(=O)N(C)Cc2nc3ccccc3s2)nnn1C1CCNCC1 [CBK306501C] | 27.619
69 | Cn1c(NC(=O)COc2ccccc2)nc2ccccc21 [CBK269783] | 95.5965
70 | N#CCCN(CC1CCCO1)S(=O)(=O)c1ccc(OC(F)(F)F)cc1 (centres unmarked) [CBK044405] | 88.4773
71 | O=C(O)c1cccc(/N=C/c2ccc(/C=N/c3cccc(C(=O)O)c3)cc2)c1 [CBK261088] | 96.6327
72 | CCOC(=O)c1[nH]c2ccccc2c1NC(=O)CN1C(=O)CSC1=O [CBK160163] | 91.802
73 | COc1ccc(-c2nc(NC(=O)Cc3ccc(N(C)C)cc3)cnc2-c2ccc(F)cc2)cn1 [CBK037582] | 84.2214
74 | O=C(O)CSc1ccccc1[N+](=O)[O-] [CBK111324] | 92.4743
75 | COc1ccc(NC(=O)CSc2nsc(SCC(=O)Nc3ccc(OC)cc3)n2)cc1 [CBK008918] | 95.4606
76 | COc1cccc(CCN2CCC(C(=O)NC(c3ccc(F)cc3)c3nc(OC)cc(OC)n3)CC2)c1 (centres unmarked) [CBK148089] | 100.024
77 | Cc1ccc(OCc2occc2C(=O)N2CCCCC(N)C2)cc1 (centres unmarked) [CBK306840] | 79.1637
